In general, pKi refers to the negative decadic logarithm of the Ki, by convention in mol/L.

pKi: −log10 of the molar value.

Chain of UniProt O43193 (O43193 whole entry): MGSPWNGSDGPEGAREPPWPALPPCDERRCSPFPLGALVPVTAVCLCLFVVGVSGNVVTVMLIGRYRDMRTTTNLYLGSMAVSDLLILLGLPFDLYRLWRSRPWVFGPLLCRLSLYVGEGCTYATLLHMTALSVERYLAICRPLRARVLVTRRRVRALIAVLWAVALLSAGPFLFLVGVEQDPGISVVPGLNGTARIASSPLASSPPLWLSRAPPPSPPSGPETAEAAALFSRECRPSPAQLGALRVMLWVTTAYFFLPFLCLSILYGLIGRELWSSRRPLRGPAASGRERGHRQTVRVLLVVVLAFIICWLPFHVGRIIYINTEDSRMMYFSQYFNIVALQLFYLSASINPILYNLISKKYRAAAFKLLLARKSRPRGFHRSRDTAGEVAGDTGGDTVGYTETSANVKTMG

This experiment has as its target human motilin receptor (Homo sapiens, UniProt O43193). Nature of the experiment: Competitive radioligand binding assay (Method B1). More on the design: purchased PerkinElmer 6110544; host or cells: CHO cells, stably transfected (membranes). The settings on record: Radioligand competitive binding assay, Method B1; values reported as ranges; read-out: Ki (binding activity). How it is done:
Competitive Radioligand Binding Assay (Motilin Receptor)
• Membranes were prepared from CHO cells stably transfected with the human motilin receptor and utilized at a quantity of 1.5 μg/assay point.
Final Test Concentrations (N=11) for Compounds:
Compounds were provided frozen on dry ice at a stock concentration of 10 mM diluted in 100% DMSO and stored at −20° C. until the day of testing. On the test day, compounds were allowed to thaw at room temperature and than diluted in assay buffer according to the desired test concentrations. Under these conditions, the maximum final DMSO concentration in the assay was 0.5%.
Plates are sealed with TopSeal-A, vortexed gently and incubated at room temperature for 2 hours. The reaction is arrested by filtering samples through pre-soaked (0.3% polyethyleneimine, 2 h) Multiscreen Harvest plates using a Tomtec® Harvester (Tomtec, Hamden, Conn.)), washed 9 times with 500 μL of cold 50 mM Tris-HCl (pH 7.4), and than plates are air-dried in a fumehood for 30 minutes. A bottom seal is applied to the plates prior to the addition of 25 μL of MicroScint-0™ to each well.
Data are analyzed by GraphPad™ Prism (GraphPad Software, San Diego, Calif.) using a variable slope non-linear regression analysis.
where total and non-specific binding represent the cpm obtained in the absence or presence of 1 μM motilin, respectively.
On to `CC(C)C1NC(=O)C(Cc2cccs2)NCCOc2ccccc2CCCNC(=O)C(CO)NC1=O` (stereo not drawn) [Compound 180], for which the pKi was 6.00 to 7.00.
The result for `CC(C)[C@H]1NC(=O)[C@@H](Cc2cccc(Cl)c2)NCCOc2ccccc2CCCNC(=O)[C@H](CO)NC1=O` [Compound 181] reads 7.00 to 9.00; that for `CC(C)[C@H]1NC(=O)[C@@H](Cc2ccc(Cl)cc2)NCCOc2ccccc2CCCNC(=O)[C@H](CO)NC1=O` [Compound 182], 7.00 to 9.00; that for `CC(C)C1NC(=O)C(Cc2ccc(F)cc2)NCCOc2ccccc2CCCNC(=O)C(CO)NC1=O` (stereo not drawn) [Compound 183], 6.00 to 7.00.
The figure for `CC(C)C1NC(=O)C(Cc2cccc3ccccc23)NCCOc2cccnc2CCCNC(=O)C(CN)NC1=O` (stereo not drawn) [Compound 184] is 6.00 to 7.00.
The result for `CC(C)C1NC(=O)C(Cc2ccc(Cl)cc2)NCCOc2cccnc2CCCNC(=O)C(CN)NC1=O` (stereo not drawn) [Compound 185] reads 6.00 to 7.00; that for `CC(C)C1NC(=O)C(Cc2ccc(O)cc2)NCCOc2ccccc2CCCNC(=O)C(Cc2c[nH]cn2)NC1=O` (stereo not drawn) [Compound 186], 6.00 to 7.00; that for `CCC[C@@H]1NC(=O)[C@@H](C(C)C)NC(=O)[C@@H](Cc2cccc(C(F)(F)F)c2)NCCOc2ccccc2CCCNC1=O` [Compound 187], 7.00 to 9.00.
With `CCCC1NC(=O)C(C(C)C)NC(=O)C(Cc2cccc(F)c2)NCCOc2ccccc2CCCNC1=O` (stereo not drawn) [Compound 188], the pKi was 7.00 to 9.00.
`CCCC1NC(=O)C(C(C)C)NC(=O)C(Cc2ccc([N+](=O)[O-])cc2)NCCOc2ccccc2CCCNC1=O` (stereo not drawn) [Compound 189]: the pKi is 6.00 to 7.00.
The figure for `CC(C)[C@H]1NC(=O)[C@@H](Cc2csc3ccccc23)NCCOc2ccccc2CCCNC(=O)[C@H](CC2CC2)NC1=O` [Compound 190] is 7.00 to 9.00; for `COc1cccc(C[C@H]2NCCOc3ccccc3CCCNC(=O)[C@H](CC3CC3)NC(=O)[C@@H](C(C)C)NC2=O)c1` [Compound 191] it is 7.00 to 9.00.
On to `CC(C)[C@H]1NC(=O)[C@@H](Cc2ccc(Cl)c(Cl)c2)NCCOc2ccccc2CCCNC(=O)[C@H](CC2CC2)NC1=O` [Compound 192], for which the pKi was 7.00 to 9.00.
With `CC(C)[C@H]1NC(=O)[C@@H](Cc2ccc(F)c(F)c2)NCCOc2ccccc2CCCNC(=O)[C@H](CC2CC2)NC1=O` [Compound 193], the pKi was 7.00 to 9.00.
For the compound `CCCC1NC(=O)C(C(C)C)NC(=O)C(Cc2ccc(OC)cc2)NCCCc2c(c(=O)n(C)c(=O)n2C)CCCNC1=O` (stereo not drawn) [Compound 194], the pKi was 6.00 to 7.00.
`CCC[C@@H]1NC(=O)[C@@H](C(C)C)NC(=O)[C@@H](Cc2ccc(OC)cc2)NC(C)COc2ccccc2CCCNC1=O` (stereo partly drawn) [Compound 195]: the pKi is 7.00 to 9.00.
`CC1COc2ccccc2CCCNC(=O)[C@H](CC2CC2)NC(=O)[C@@H](C(C)C)NC(=O)[C@@H](Cc2cccc(Cl)c2)N1` (stereo partly drawn) [Compound 198]: the pKi was 7.00 to 9.00.
The figure for `CC(C)C1NC(=O)C(Cc2cccc(Cl)c2)NCCC2OC(CNC(=O)C(CC3CC3)NC1=O)C(O)C2O` (stereo not drawn) [Compound 199] is 6.00 to 7.00; for `CC(C)[C@H]1NC(=O)[C@@H](Cc2cccc(Cl)c2)NCCOc2ccccc2/C=C/CNC(=O)[C@H](CC2CC2)NC1=O` [Compound 200] it is 7.00 to 9.00; for `CCCC1NC(=O)C(C(C)C)NC(=O)C(Cc2cccc3ccccc23)NCCOc2ccccc2C=CCNC1=O` (stereo not drawn) [Compound 201] it is 6.00 to 7.00.
The figure for `CCCC1NC(=O)C(C(C)C)NC(=O)C(Cc2cccc(OC)c2)NCCOc2ccccc2C=CCNC1=O` (stereo not drawn) [Compound 202] is 7.00 to 9.00; for `CC(=O)NCC1NC(=O)C(C(C)C)NC(=O)C(Cc2ccc(Cl)cc2)NCCOc2ccccc2CCCNC1=O` (stereo not drawn) [Compound 203] it is 6.00 to 7.00.
Consider `CC(C)[C@H]1NC(=O)[C@@H](Cc2ccc(Cl)cc2)NCCOc2ccccc2CCCNC(=O)[C@H](CN=C(N)N)NC1=O` [Compound 204], for which the pKi was 7.00 to 9.00.
The result for `CC(C)CC1C(=O)NCCCc2ccccc2OCCNC(Cc2cccc(Cl)c2)C(=O)NC(C(C)C)C(=O)N1C` (stereo not drawn) [Compound 205] reads 6.00 to 7.00; that for `CC(C)C1NC(=O)C(Cc2ccc(Cl)cc2)NCCOc2ccccc2CCCNC(=O)C(CNS(C)(=O)=O)NC1=O` (stereo not drawn) [Compound 206], 6.00 to 7.00; that for `CC(C)C1NC(=O)C(Cc2ccc(Cl)cc2)NCCOc2ccccc2CCCNC(=O)C(CNC(N)=O)NC1=O` (stereo not drawn) [Compound 207], 6.00 to 7.00.
`CC(C)C1NC(=O)C(Cc2ccc(O)cc2)NCCOc2ccccc2CCCNC(=O)C(CNC(=N)N)NC1=O` (stereo not drawn) [Compound 208]: the pKi is 6.00 to 7.00.
The result for `CC(=O)NCC1NC(=O)C(C(C)C)NC(=O)C(Cc2ccc(O)cc2)NCCOc2ccccc2CCCNC1=O` (stereo not drawn) [Compound 209] reads 5.00 to 6.00; that for `CC(C)[C@H]1NC(=O)[C@@H](Cc2ccc(Cl)cc2)NCCOc2ccccc2CCCNC(=O)[C@H](CN(C)C)NC1=O` [Compound 211], 7.00 to 9.00; that for `CCCC1NC(=O)C(C(C)C)NC(=O)C(Cc2cc(I)c(O)c(I)c2)NCCOc2ccccc2CCCNC1=O` (stereo not drawn) [Compound 213], 6.00 to 7.00.
As for `COc1ccc(CC2NCCOc3ccccc3CCCNC(=O)C(CCO)NC(=O)C(C(C)C)NC2=O)cc1` (stereo not drawn) [Compound 214], the pKi is 6.00 to 7.00.
Take `CC(C)C1NC(=O)C(Cc2ccc(O)cc2)NCCOc2ccccc2CCCNC(=O)C(CN(C)C)NC1=O` (stereo not drawn) [Compound 215]: the pKi is 6.00 to 7.00.
Consider `CC(C)C1NC(=O)C(Cc2cccc(Cl)c2)NCCOc2ccc(F)cc2CCCNC(=O)C(CC2CC2)NC1=O` (stereo not drawn) [Compound 217], for which the pKi was 6.00 to 7.00.
On to `CCC[C@@H]1NC(=O)[C@@H](C(C)C)NC(=O)[C@@H](Cc2cccc(Cl)c2)NCCOc2ccccc2C(C)CCNC1=O` (stereo partly drawn) [Compound 218], for which the pKi is 7.00 to 9.00.
Consider `CCCC1NC(=O)C(C(C)C)NC(=O)C(Cc2cccc(Cl)c2)NCCOc2ccc(Cl)cc2CCCNC1=O` (stereo not drawn) [Compound 219], for which the pKi was 6.00 to 7.00.
As to `CCCC1NC(=O)C(C(C)C)NC(=O)C(Cc2cccc(Cl)c2)NCCOc2cc(F)ccc2CCCNC1=O` (stereo not drawn) [Compound 221], the pKi was 6.00 to 7.00.
Turning to `CCC[C@@H]1NC(=O)[C@@H](C(C)C)NC(=O)[C@@H](Cc2ccc(O)c(C(C)(C)C)c2)NCCOc2ccccc2CCCNC1=O` [Compound 222], the pKi was 7.00 to 9.00.
The figure for `CCCC1NC(=O)C(C(C)C)NC(=O)C(Cc2ccc(O)cc2)N(C(C)=O)CCOc2ccccc2CCCNC1=O` (stereo not drawn) [Compound 223] is 5.00 to 6.00; for `CC(C)CC1NC(=O)C(C(C)C)NC(=O)C(Cc2cccc3ccccc23)N(C)CCOc2ccccc2CCCNC1=O` (stereo not drawn) [Compound 224] it is 6.00 to 7.00.
The figure for `CC(=O)N1CCOc2ccccc2CCCNC(=O)C(CC(C)C)NC(=O)C(C(C)C)NC(=O)C1Cc1cccc2ccccc12` (stereo not drawn) [Compound 225] is 6.00 to 7.00; for `CC(C)CC1NC(=O)C(C(C)C)NC(=O)C(Cc2cccc3ccccc23)N(Cc2nccs2)CCOc2ccccc2CCCNC1=O` (stereo not drawn) [Compound 226] it is 5.00 to 6.00.
On to `CC(C)CC1NC(=O)C(C(C)C)NC(=O)C(Cc2cccc3ccccc23)N(Cc2ccccc2)CCOc2ccccc2CCCNC1=O` (stereo not drawn) [Compound 227], for which the pKi was 6.00 to 7.00.

For the origin of these results see patent publication US20090240027A1, “INTERMEDIATES FOR MACROCYCLIC COMPOUNDS” (Tranzyme Pharma Inc., priority 2003, published 2009).
